Reference: PubChem BioAssay AID588342 (National Center for Advancing Translational Sciences (NCATS), 2011)
Hit rate of the full screen: of about 360,000 compounds, about 25,000 (6.9%) were called active. Inconclusive means that the source gave no clear call. Such entries were picked first, then a sample of the others. The call rests on the fitted dose curve; in most records, active means well fitted inhibition curve with a large enough effect; inconclusive means small, poorly fitted or top-dose-only effect; inactive means flat fitted curve, though single readings scatter. Potencies of inconclusive entries are doubtful fits and often do not repeat.

Biological target: Luciferin 4-monooxygenase (Photinus pyralis) (UniProt P08659)
UniProt P08659, sequence (P08659 whole entry, looked up): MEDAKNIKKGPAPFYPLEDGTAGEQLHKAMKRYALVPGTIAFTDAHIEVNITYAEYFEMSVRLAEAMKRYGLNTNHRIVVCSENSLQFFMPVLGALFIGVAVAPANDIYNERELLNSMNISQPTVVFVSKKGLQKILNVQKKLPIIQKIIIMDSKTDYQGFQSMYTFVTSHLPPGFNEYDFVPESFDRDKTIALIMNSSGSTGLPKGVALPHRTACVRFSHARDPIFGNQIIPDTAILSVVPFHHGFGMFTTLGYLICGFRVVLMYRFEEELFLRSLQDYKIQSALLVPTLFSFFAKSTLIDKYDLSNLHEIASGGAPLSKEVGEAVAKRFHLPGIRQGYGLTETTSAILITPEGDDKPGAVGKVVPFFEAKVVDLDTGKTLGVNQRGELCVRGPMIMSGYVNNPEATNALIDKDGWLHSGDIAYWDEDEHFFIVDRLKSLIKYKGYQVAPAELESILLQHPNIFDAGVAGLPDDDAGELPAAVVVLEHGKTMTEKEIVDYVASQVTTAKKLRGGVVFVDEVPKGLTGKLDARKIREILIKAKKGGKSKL
Assay: qHTS profiling assay for firefly luciferase inhibitor/activator using purifed enzyme and Km concentrations of substrates (counterscreen for miR-21 project); further: nearly all actives have a fitted effect of over 55% in size;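 on activity change, negative = inhibition: plate controls were vehicle for no effect and reference inhibitor for full effect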
Settings: purified FLuc, luminescence inhibition; activity change, negative = inhibition: at 57.5 µM (top of the series)
Method in brief: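 Purified P. pyralis luciferase, 10 nM final, with Km-level 10 uM D-luciferin and 10 uM ATP in 50 mM Tris acetate pH 7.5, 10 mM Mg acetate, 0.01% Tween-20, 0.05% BSA; 6-point qHTS titration about 60 µM downward; luminescence read.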
Potency means the concentration at half of the fitted maximal effect; tags describe the fitted curve by direction and shape.

Row | Compound | Potency | activity change, negative = inhibition
1 | CCNc1nc(NCC)nc(N/N=C/c2ccc(O)c(OC)c2)n1 | inconclusive: 21.3 µM [inhibitor, single point] | 
2 | Cc1ccc(OC(C)C(=O)O)cc1C (configuration not stated) |  | inactive: -4.15%
3 | Cn1c(NC(=O)CCC2CCCCC2)cc(=O)n(C)c1=O | active: 5.36 µM | 
4 | Cc1cc2nc(C3CCCN(C(=O)NCc4ccccc4)C3)[nH]c2cc1C (configuration not stated) | inconclusive: 12 µM [inhibitor, partial curve, poor fit] | 
5 | Fc1ccc(COc2ccccc2C(=S)N2CCCC2)cc1 | inconclusive: 37.9 µM [inhibitor, partial curve, poor fit] | 
6 | O=C(OCc1nnc(-c2ccccc2)o1)C1CC(=O)N(CCc2ccccc2)C1 (configuration not stated) | inconclusive: 13.5 µM [inhibitor, partial curve, poor fit] | 
7 | COc1ccccc1-c1nc(C#N)c(N2CCN(Cc3ccccc3)CC2)o1 | inconclusive: 26.9 µM [inhibitor, single point] | 
8 | CCCN=C(C)C1=C(O)c2ccccc2C1=O | active: 21.3 µM | 
9 | N=C1C(c2nc3ccccc3s2)=C(O)CN1C1CCC(O)CC1 (configuration not stated) | inconclusive: 26.9 µM [inhibitor, single point] | 
10 | Nc1nc(SCc2ccc3c(c2)OCCO3)n[nH]1 | inconclusive: 26.9 µM [inhibitor, single point] | 
11 | COc1ccc(N(C(=O)c2cnccn2)C(C(=O)NC2CCCCC2)c2cc(OC)c(OC)c(OC)c2)cc1 (configuration not stated) |  | inactive: 0.391%
12 | O=C(c1cc2ccccc2oc1=O)N(Cc1cccs1)Cc1ccccc1Cl | inconclusive: 19 µM [inhibitor, single point] | 
13 | CC(C)CN(C(=O)COC(=O)CNC(=O)c1sc2ccccc2c1Cl)C1CCS(=O)(=O)C1 (configuration not stated) | active: 12 µM | 
14 | C=CCn1c(C)cc(-c2csc(N)n2)c1C | inconclusive: 23.9 µM [inhibitor, partial curve] | 
15 | Cn1cc(Br)c(NC(=O)/C=C/C(=O)O)n1 | inconclusive: 16.9 µM [inhibitor, partial curve] | 
16 | O=S(=O)(N/N=C/c1ccccc1OCc1ccc(Cl)cc1)c1ccccc1 | inconclusive: 23.9 µM [inhibitor, partial curve, poor fit] | 
17 | CCOc1ccc(NC(=O)c2ccc(OC)cc2)cc1 | inconclusive: 4.78 µM [inhibitor, full curve] | 
18 | O=C(c1cn(-c2ccccc2)nc1-c1cccs1)N1CCN(c2ccccc2)CC1 | inconclusive: 19 µM [inhibitor, partial curve] | 
19 | COc1ccc2c(c1)cc1n2CCN=C1NN | inconclusive: 37.9 µM [inhibitor, partial curve, poor fit] | 
20 | COc1ccc(C(=O)c2c[nH]c3ccccc23)cc1 | active: 3.38 µM | 
21 | CCOC(=O)c1ccc(N2N=C(C)/C(=C/C=C/c3ccco3)C2=O)cc1 | inconclusive: 16.9 µM [inhibitor, partial curve] | 
22 | Oc1ccc(-c2cn3c(n2)SCC3)cc1O | inconclusive: 16.9 µM [inhibitor, partial curve] | 
23 | COc1cc(C2C(C(=O)Nc3ccccc3C)=C(C)Nc3nc(SCc4cc(C)ccc4C)nn32)ccc1O (configuration not stated) |  | inactive: -2.25%
24 | O=C(CSc1ccccn1)N/N=C/C=C/c1ccccc1 | inconclusive: 23.9 µM [inhibitor, single point] | 

Row | Compound | Potency | activity change, negative = inhibition
25 | NC(=O)NC(=O)C(c1ccccc1)N1CCN(S(=O)(=O)c2ccc(Br)s2)CC1 (configuration not stated) |  | inactive: 1.34%
26 | CC1CCCC(C)N1C(=O)COC(=O)c1ccc2c(c1)OCO2 (configuration not stated) | inconclusive: 23.9 µM [inhibitor, partial curve, poor fit] | 
27 | Cc1cccc(NC(=O)c2ccc(C)c(S(=O)(=O)N3CCCCC3)c2)n1 | inconclusive: 16.9 µM [inhibitor, partial curve] | 
28 | O=C(Nc1ccc2c(c1)CCC2)C1CCN(c2ncccn2)CC1 | inconclusive: 10.7 µM [inhibitor, partial curve] | 
29 | CC(C)c1nc2ccc(C(=O)O)cc2[nH]1 | active: 15.1 µM | 
30 | O=C(COC(=O)c1c[nH]c2ccccc12)NC1CCCC1 | inconclusive: 8.49 µM [inhibitor, partial curve, poor fit] | 
31 | O=C(c1nn2c(C(F)(F)F)cc(-c3cccs3)nc2c1Br)N1CCCc2ccccc21 |  | inactive: -17.9%
32 | Cc1ccc(-c2nnc(Nc3ccc(CC(N)=O)cc3)c3ccccc23)cc1 | inconclusive: 37.9 µM [inhibitor, partial curve, poor fit] | 
33 | CCOc1ccc(CCNCc2c(C(=O)O)c(C)n(Cc3ccccc3F)c2C)cc1 |  | inactive: -9.33%
34 | COC(=O)c1ccc(C2NC(=O)c3ccccc3O2)cc1 (configuration not stated) | inconclusive: 37.9 µM [inhibitor, partial curve, poor fit] | 
35 | CC(=O)c1cccc(NC(=O)COC(=O)c2cccs2)c1 | inconclusive: 26.9 µM [inhibitor, partial curve] | 
36 | O=[N+]([O-])c1cccc(/C=C/c2ccc3cccc(O)c3n2)c1 | inconclusive: 2.39 µM [inhibitor, full curve] | 
37 | C/C(Cc1ccccc1)=N\NC(=O)CNC(=O)c1ccccc1 | inconclusive: 26.9 µM [inhibitor, single point] | 
38 | COc1cccc(OCc2cc(C(=O)N(Cc3nccn3C)C(C)C)no2)c1 |  | inactive: -0.187%
39 | COc1ccc(NS(=O)(=O)c2ccc3c(c2)[C@H]2C=CC[C@H]2[C@@H](c2ccc(C(=O)O)cc2)N3)cc1 | inconclusive: 15.1 µM [inhibitor, partial curve] | 
40 | Cc1ccccc1C(=O)Nc1ccc(N2CCOCC2)nc1 | inconclusive: 26.9 µM [inhibitor, partial curve, poor fit] | 
41 | O=C1C=C(NCc2ccccc2)c2ccccc2C1=O |  | inactive: -10.1%
42 | O=C(O)c1ccc(Cl)c(S(=O)(=O)N2CCC(Cc3ccccc3)CC2)c1 |  | inactive: 2.85%
43 | COc1ccc(C)cc1-n1c(SCC(=O)Nc2cccc(C(=O)O)c2)nc2ccccc2c1=O | inconclusive: 37.9 µM [inhibitor, single point] | 
44 | CCOC(=O)c1c(/N=C/c2cc(C)ccc2O)sc2c1CCN(C)C2 | inconclusive: 26.9 µM [inhibitor, partial curve] | 
45 | COC(=O)Cc1ccc(NC(=O)c2cccs2)cc1 | active: 21.3 µM | 
46 | Cc1cc(S(=O)(=O)Nc2ccc3oc4c(c3c2)CCCC4)ccc1Cl | inconclusive: 10.7 µM [inhibitor, partial curve, poor fit] | 
47 | CCC(=O)Oc1ccc2c(c1)O/C(=C\c1ccco1)C2=O | active: 3.38 µM | 
48 | Fc1cccc(C[n+]2csc3ccccc32)c1 | inconclusive: 6.75 µM [inhibitor, partial curve] | 

Row | Compound | Potency | activity change, negative = inhibition
49 | O=C(O)CCCC(=O)OCc1c(-c2ccccc2)ncc2ccccc12 | inconclusive: 7.57 µM [inhibitor, partial curve, poor fit] | 
50 | COc1ccc(C(=O)Oc2ccc(C(c3c(C)[nH][nH]c3=O)c3c(C)[nH][nH]c3=O)cc2)cc1 | active: 16.9 µM | 
51 | C/C(=N/Nc1nc(-c2ccccc2)cc(-c2ccccc2)n1)c1ccc(N)cc1 | active: 5.36 µM | 
52 | COc1cccc(-n2c(SCC(N)=O)nc3c(oc4ccccc43)c2=O)c1 |  | inactive: -9.36%
53 | CCc1ccccc1NC(=O)CCCn1c(=O)c2cccn2c2ccccc21 | inconclusive: 37.9 µM [inhibitor, partial curve, poor fit] | 
54 | CC(=O)c1ccc(NC(=O)c2ccc3nc(-c4ccco4)c(-c4ccco4)nc3c2)cc1 | active: 12 µM | 
55 | C/C(=N\NC(=O)c1ccc2ccccc2c1)c1cccs1 | active: 4.26 µM | 
56 | COC(=O)C1(CC2CC(c3cccc(Br)c3)=NO2)CCN(C(=O)OC(C)(C)C)CC1 (configuration not stated) |  | inactive: -5.72%
57 | COc1ccc2c(CCNC(=O)c3ccco3)c[nH]c2c1 | inconclusive: 23.9 µM [inhibitor, single point] | 
58 | COc1ccc2oc(=O)c(/C(C)=N/Nc3ccccc3)cc2c1 | active: 23.9 µM | 
59 | O=C(CCCNS(=O)(=O)c1cccc2nsnc12)NCc1ccc(F)cc1 |  | inactive: -0.0036%
60 | Cc1cc(/C=C(\C#N)C(N)=O)c(C)n1-c1ccc(N2CCOCC2)c([N+](=O)[O-])c1 |  | inactive: 1.14%
61 | COc1ccc2c(c1)C(=O)C(=O)N2CCS(=O)(=O)c1ccccc1 | inconclusive: 23.9 µM [inhibitor, single point] | 
62 | CCC(C)c1c(O)nc(SCC(=O)N2CCCCCC2)[nH]c1=O (configuration not stated) |  | inactive: 0.123%
63 | COc1ccc(-c2nn(-c3ccccc3)cc2C(=O)Nc2nccs2)cc1OC | inconclusive: 23.9 µM [inhibitor, single point] | 
64 | COc1ccc(Nc2nc(N)nc(CCl)n2)cc1 | active: 6.01 µM | 
65 | Cc1ccc(NC(=O)c2cnc3cc(C)ccn3c2=O)c(C)c1 | inconclusive: 10.7 µM [inhibitor, partial curve] | 
66 | CCOC(=O)N/N=C/C=C/c1ccccc1 | inconclusive: 26.9 µM [inhibitor, single point] | 
67 | CC1CCc2c(sc(NC(=O)CSc3nc(N)cc(=O)[nH]3)c2C(N)=O)C1 (configuration not stated) | active: 16.9 µM | 
68 | CC(=O)c1ccc(NC(=S)N2CCCC(CO)C2)cc1 (configuration not stated) | active: 8.49 µM | 
69 | C/C=C/C=C/C(=O)Nc1nccs1 | inconclusive: 23.9 µM [inhibitor, partial curve, poor fit] | 
70 | Cc1ccc(C(=O)Nc2ccc3c(c2)OCO3)cc1S(=O)(=O)N1CCOCC1 | inconclusive: 16.9 µM [inhibitor, single point] | 
71 | CCOC(=O)c1c(NC(=O)c2cc(C)oc2C)sc(C(=O)Nc2ccc(Cl)cc2)c1C | active: 16.9 µM | 
72 | O=C(c1nnc(-c2ccncc2)o1)c1ccccc1Cl | inconclusive: 23.9 µM [inhibitor, single point] | 
